# The list shows a part of the results.
# Target: T1, OsWOX13 (Oryza sativa, UniProt Q5QMM3 1-267)
# T1 sequence: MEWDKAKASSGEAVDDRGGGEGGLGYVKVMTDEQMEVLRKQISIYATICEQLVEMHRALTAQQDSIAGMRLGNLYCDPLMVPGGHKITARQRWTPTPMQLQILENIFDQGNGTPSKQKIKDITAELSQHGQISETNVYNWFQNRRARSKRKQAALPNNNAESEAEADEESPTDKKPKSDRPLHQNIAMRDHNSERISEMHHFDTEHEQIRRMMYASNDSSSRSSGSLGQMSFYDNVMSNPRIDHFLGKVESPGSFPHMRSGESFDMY
# Test: protein-binding microarray (RPBM); PBS, 2% BSA, 51.3 ng/ul salmon testes DNA, 50 uM zinc acetate, 200 nM TF, 25 C, 1 h; high values mean tight binding
# Conditions: protein: recombinant; tags: N-terminal polyhistidine and DsRed monomer fusion (pET32a); label: CyDye5-dUTP incorporated in the synthesized complementary strand; 3' TTTTT single-stranded linker to array surface; dsDNA, one strand shown
# Method in brief: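 The binding signal is fluorescence intensity per feature, in arbitrary units, read on an Axon 4000B scanner. Polyhistidine- and DsRed-tagged transcription factors (N-terminal fusions) from E. coli BL21-CodonPlus were purified on Ni–NTA and applied at 200 nM for 1 h at 25 °C to a double-stranded, BSA-blocked custom Agilent array in buffer with 50 µM zinc acetate.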
row,Sequence,binding signal
1,GTCAATTTAGATTGCCGCGCTTACAATTAGTTCTCAGGAACGGAGTCACCTAGTGCAG,15100 fluorescence intensity (a.u.)
2,GAGTTTAATTAATTAATTTCTTAAAATTGATGTCATCACACGGAGTCACCTAGTGCAG,54800 fluorescence intensity (a.u.)
3,GATGACATATATCAAACTTTGCAAAATTATAATGGTATGGCGGAGTCACCTAGTGCAG,5960 fluorescence intensity (a.u.)
4,ACCTAATTAATCCGTCATTAACAAATGTTTACCGTAACACCGGAGTCACCTAGTGCAG,38100 fluorescence intensity (a.u.)
5,GGTTAAGTAATCAACCAGTGATAGTTGGTGTGTTTATGTACGGAGTCACCTAGTGCAG,3610 fluorescence intensity (a.u.)
6,TTATACAGATTGCGTGTAAATTGCGAGACAAATCTTTTAACGGAGTCACCTAGTGCAG,3840 fluorescence intensity (a.u.)
7,CGTCCGTCATTGATTATGCCAGATCATAGCTGTACGTCGTCGGAGTCACCTAGTGCAG,21300 fluorescence intensity (a.u.)
8,CAGATAACTATTGTATGAATTGGCCATTAAAATGACTACACGGAGTCACCTAGTGCAG,3610 fluorescence intensity (a.u.)
9,GTTTAATTAACGCCAAACTTTCCCCAAATTCTAAACTTTTCGGAGTCACCTAGTGCAG,27800 fluorescence intensity (a.u.)
10,CCGGCAAATCCTTAATTAATTAATTATGCATCATCTATTTCGGAGTCACCTAGTGCAG,32400 fluorescence intensity (a.u.)
11,CCATTAATTGGAACCAAAATTGTAGGTGGACAGGTATCCACGGAGTCACCTAGTGCAG,45000 fluorescence intensity (a.u.)
12,CCAAATATAAATTTATAGAAATGTAATAAGTTTATGAGATCGGAGTCACCTAGTGCAG,11600 fluorescence intensity (a.u.)
13,GTGCTCTTGATTGGCACATGAGCCTTGGCGGCGGTGACCTCGGAGTCACCTAGTGCAG,35600 fluorescence intensity (a.u.)
14,GCTTCTTTGATTGTTGAGCGGGTTGTGTTCTTCATCACTTCGGAGTCACCTAGTGCAG,23700 fluorescence intensity (a.u.)
15,ATGTAATTATCATTTATTTTATTATGACTTGATTCATCATCGGAGTCACCTAGTGCAG,49600 fluorescence intensity (a.u.)
16,ATGTGACCATAATTGGCTTTATGTATTTAGATGGTATGGACGGAGTCACCTAGTGCAG,27600 fluorescence intensity (a.u.)
17,TTAATGATTGAATTGAACCTGTGAATGGAGAAGAACAACCCGGAGTCACCTAGTGCAG,30900 fluorescence intensity (a.u.)
18,TTTACTAATGAATACTTTAATTGTAGTGGAAATTCTATTGCGGAGTCACCTAGTGCAG,14700 fluorescence intensity (a.u.)
19,ATGGAATTGATTAGAAGCCAGCCAGGCAGGGGAGGGTCGTCGGAGTCACCTAGTGCAG,33900 fluorescence intensity (a.u.)
20,CGGTGATATTTATGTAAATTTATGGAGTAATATGTTTTATCGGAGTCACCTAGTGCAG,7480 fluorescence intensity (a.u.)
21,GAAATCAATTTCTTATTGTCAAGCATGATAATATGCATCACGGAGTCACCTAGTGCAG,6020 fluorescence intensity (a.u.)

row,Sequence,binding signal
1,CAGTATATTGATACACTGATGCAATCATACAATATTGTGACGGAGTCACCTAGTGCAG,5680 fluorescence intensity (a.u.)
2,ACCGTGATGAGCAGCTCCGTGCAGTTTATTTTGGTCAGATCGGAGTCACCTAGTGCAG,7060 fluorescence intensity (a.u.)
3,ATAAATTACCTAATGCAGTGGGCTGGTCTGGTGCATCGCCCGGAGTCACCTAGTGCAG,18800 fluorescence intensity (a.u.)
4,ACTGTCAAATCATGGCACAATTAGGCTTAAAATATTCGTCCGGAGTCACCTAGTGCAG,5650 fluorescence intensity (a.u.)
5,CTACAAATTAATAATTAGTGACGTTGATTATATATCAAAACGGAGTCACCTAGTGCAG,29000 fluorescence intensity (a.u.)
6,AGTAAAACAGAATGCCAAATTAGTGCACGATTAAGGCCCTCGGAGTCACCTAGTGCAG,4250 fluorescence intensity (a.u.)
7,AACTCAATTTGTATAGTTAAGGGACATAAAATGGACTTTGCGGAGTCACCTAGTGCAG,4960 fluorescence intensity (a.u.)
8,TAAACCTAATTAATCTATAATTAGATAATGTTTACTGTAGCGGAGTCACCTAGTGCAG,40200 fluorescence intensity (a.u.)
9,AGATAATCCATAATAATAATTAGCTTAATAATCTAAATCACGGAGTCACCTAGTGCAG,10800 fluorescence intensity (a.u.)
10,CATATGATCTGGCTAACTGGCTTGACTTAACCAACTATATCGGAGTCACCTAGTGCAG,4350 fluorescence intensity (a.u.)
11,TGATTAATGAGAGAACAGATTCGCCATGGCCACAAGCACGCGGAGTCACCTAGTGCAG,3520 fluorescence intensity (a.u.)
12,GTGCCATCCTGATTTGTCCCTCCCTGTCGCCTCACTGTTTCGGAGTCACCTAGTGCAG,6910 fluorescence intensity (a.u.)
13,TGGCGCCAACAAGGTAACTTAATTGAGGCTTTAATTGAGGCGGAGTCACCTAGTGCAG,8120 fluorescence intensity (a.u.)
14,CCAATTAATTAATCCTTCGTCCTCACCATCCAAAATGTTTCGGAGTCACCTAGTGCAG,32100 fluorescence intensity (a.u.)
15,CAGAATTTACAAAATGGATTGACCAAAAGCCTAATTAATTCGGAGTCACCTAGTGCAG,7770 fluorescence intensity (a.u.)
16,TTCAAATTTATGGTATTAGGATGTGTTATATCTAGTACTACGGAGTCACCTAGTGCAG,3530 fluorescence intensity (a.u.)
17,ACATGATTTTCACATTTCTAACACTTGATATTTCTCCTTACGGAGTCACCTAGTGCAG,5510 fluorescence intensity (a.u.)
18,TAACGTGATTATAACATGTCAAACCATTTTACTTAGCCAGCGGAGTCACCTAGTGCAG,24600 fluorescence intensity (a.u.)
19,AAGATGTTGGCTTAAATTGAAATTACATACTAATTACACTCGGAGTCACCTAGTGCAG,12000 fluorescence intensity (a.u.)
20,TTAAAATAAAACATTGTCATTGACATGATTATGCATGAAACGGAGTCACCTAGTGCAG,4650 fluorescence intensity (a.u.)
21,TCTGACTGCAGGATGGAAGATTGTAAGTACTGTACTAAACCGGAGTCACCTAGTGCAG,4650 fluorescence intensity (a.u.)

row,Sequence,binding signal
1,ACATCTAATTTATTACTAGTTCACATTTAATATGTATATACGGAGTCACCTAGTGCAG,7800 fluorescence intensity (a.u.)
2,GTAGATATAGATAGATAGATTTAATTTTGATAATGGATAGCGGAGTCACCTAGTGCAG,31800 fluorescence intensity (a.u.)
3,ATAGATAACTGATTTTATGTTTGTGAGTGAGCATTGGTATCGGAGTCACCTAGTGCAG,24300 fluorescence intensity (a.u.)
4,ATAGACAAACTAAATAAGGGTTAATTGGATCCATGCCATTCGGAGTCACCTAGTGCAG,12700 fluorescence intensity (a.u.)
5,GGCGCATACTTGATTTTGATTAGGAAATCTGAAAACTCCCCGGAGTCACCTAGTGCAG,15300 fluorescence intensity (a.u.)
6,GTACCGTGATTAATCAGAGTTACTCCCTCCGTTATAGGTTCGGAGTCACCTAGTGCAG,23500 fluorescence intensity (a.u.)
7,TTGGCAAAATCCAATCAAATTCTGTCCTCTCCTGCGAACCCGGAGTCACCTAGTGCAG,3910 fluorescence intensity (a.u.)
8,ACATAATTTAATCCATGGTTACTTTGTAGCTGACATTTTACGGAGTCACCTAGTGCAG,11500 fluorescence intensity (a.u.)
9,GGGACAATCAGGGATTGTATGGTTTGAAGCTGATTTTGGCCGGAGTCACCTAGTGCAG,3320 fluorescence intensity (a.u.)
10,TTTGTTCATATCAAATGCCCTGATTGATATGTATTCCAAACGGAGTCACCTAGTGCAG,36500 fluorescence intensity (a.u.)
11,TTTTAAAATTTAACAAATATAATTATAATACAATTGTGGTCGGAGTCACCTAGTGCAG,14700 fluorescence intensity (a.u.)
12,CACGCGACGCGGTGAATTGATTGATCGACCGATTCCTCCCCGGAGTCACCTAGTGCAG,26400 fluorescence intensity (a.u.)
13,CACTATAATTTAACATACAAACTTCAAAATTTATCGTGAACGGAGTCACCTAGTGCAG,8310 fluorescence intensity (a.u.)
14,AAGTTATAATGTAATTACATACAAGTTACAGTATAATTACCGGAGTCACCTAGTGCAG,8690 fluorescence intensity (a.u.)
15,CTTCTGATAACAACTGATTAGAAACTATGTTAATTTGATGCGGAGTCACCTAGTGCAG,31100 fluorescence intensity (a.u.)
16,ATTAATTTGTCTGGGAGCATTTTACTTGACAAAGTTTTGCCGGAGTCACCTAGTGCAG,18500 fluorescence intensity (a.u.)
17,GATAATTTGAACCATAGATTTATCATTCAAAGGCTATAAACGGAGTCACCTAGTGCAG,9720 fluorescence intensity (a.u.)
18,TTTTAAGTCATAATTGATGTGAAGATAGAGTAAGTGCATTCGGAGTCACCTAGTGCAG,10400 fluorescence intensity (a.u.)
19,GTAGACAGATTCGTAGTATTTGATTATGTGTCTTATCATCCGGAGTCACCTAGTGCAG,7710 fluorescence intensity (a.u.)
20,GTACAATAATTTGCAAATTAAGTAGTTGTACCGTTGGTAGCGGAGTCACCTAGTGCAG,35400 fluorescence intensity (a.u.)
21,GATTAATTAGGCTCAAAAGATTCGTCTCGTGGTTTCCAGACGGAGTCACCTAGTGCAG,19100 fluorescence intensity (a.u.)

row,Sequence,binding signal
1,GGTGAAATTGGTGCAGAAATTAAGTTCAGTTCCATTCCATCGGAGTCACCTAGTGCAG,13300 fluorescence intensity (a.u.)
2,CGAAATTAGAAGTTGTTGTATATTATAATGGTCAAAATGACGGAGTCACCTAGTGCAG,7220 fluorescence intensity (a.u.)
3,GGTGATTCCGTGATTGGGTTTACGGCTAACTGTTTGCGGCCGGAGTCACCTAGTGCAG,29000 fluorescence intensity (a.u.)
4,AAGTGTTTGTAATTACTAAAATTTTGACATGAATTCAAATCGGAGTCACCTAGTGCAG,8700 fluorescence intensity (a.u.)
5,GGCACCGGCGGAGGGGCGCGGGAGGGGAGGCGGCGGCGAGCGGAGTCACCTAGTGCAG,4050 fluorescence intensity (a.u.)
6,TGTGATTTCCTTGTGAGATTATAGAAGTGGCATTCAACACCGGAGTCACCTAGTGCAG,6570 fluorescence intensity (a.u.)
7,CTCGTTGTGACAGATGGTAACCTGACGGCTACATTGCACGCGGAGTCACCTAGTGCAG,3910 fluorescence intensity (a.u.)
8,CTTTTAGATTTGGCAAATAACTATTTGTCATCCCTATCTCCGGAGTCACCTAGTGCAG,8990 fluorescence intensity (a.u.)
9,AATGATAAACATCTCAATTTTGTGTACTACAAACTGTGAGCGGAGTCACCTAGTGCAG,7120 fluorescence intensity (a.u.)
10,TTGTGACTAATCATGAGTTTGATTATAGTATTGTCACACGCGGAGTCACCTAGTGCAG,28600 fluorescence intensity (a.u.)
11,TAATACAGATTATAACAATCTAGCTTATAGTAATCTGACTCGGAGTCACCTAGTGCAG,5140 fluorescence intensity (a.u.)
12,TGAAGTTAATTTTGGTGTTCTTGGATTTTCCATGCATCTCCGGAGTCACCTAGTGCAG,3410 fluorescence intensity (a.u.)
13,CACTGACTGATTCCAATGAATTCGGCTTGGTTAGTTCATGCGGAGTCACCTAGTGCAG,34800 fluorescence intensity (a.u.)
14,AGGAGTAGTAATTAATTAATTAAGCAGGTTGTAACCGCCCCGGAGTCACCTAGTGCAG,26600 fluorescence intensity (a.u.)
15,CAAAATGAACCACAAACTGATTTGCTCCTCCCGAAGGTTCCGGAGTCACCTAGTGCAG,14000 fluorescence intensity (a.u.)
16,TAAAATTATCAAAATATTATATTATACACATAAGATTGTACGGAGTCACCTAGTGCAG,5140 fluorescence intensity (a.u.)
17,TACTTATCAATGTATGATAGATGTATCTCAAATGGACACGCGGAGTCACCTAGTGCAG,3210 fluorescence intensity (a.u.)
18,ATTGTCGATTTGAATTGGATTGGATGGCAAAGGTTACGAGCGGAGTCACCTAGTGCAG,10200 fluorescence intensity (a.u.)
19,CAGAGGCGTCGTCGTTGATTAGGGCGATTGGATTAGTCGCCGGAGTCACCTAGTGCAG,6730 fluorescence intensity (a.u.)
20,AAATGCAAAGGTGATGGATTAATTAGGCTTAATAAATTCGCGGAGTCACCTAGTGCAG,5180 fluorescence intensity (a.u.)
21,AGTATCAATTACTATCAGATTGAATTCTGTTTGTGTCGTGCGGAGTCACCTAGTGCAG,38400 fluorescence intensity (a.u.)

# — publication PMC7819943, “Rice protein-binding microarrays: a tool to detect cis-acting elements near promoter regions in rice”
